Results from PubChem BioAssay AID1030 (National Center for Advancing Translational Sciences (NCATS), 2008).
Several values for one entry are separate records, joined by “and”; a condition that tells them apart may be missing. Equal entries are not always repeated. Among all 220,000 compounds or so, about 16,000 (7.3%) were called active. The shares of active, inactive and inconclusive entries below differ from those in the screen. The call rests on the fitted dose curve; in most records, active means well fitted inhibition curve with a large enough effect (not every such curve was filed as active); inconclusive means small, poorly fitted or top-dose-only effect, or another doubt; inactive means no such curve, though single readings can be large or run the other way. Potencies of inconclusive entries are doubtful fits and often do not repeat.

Target: Aldehyde dehydrogenase 1A1 (Homo sapiens) (UniProt P00352)
Experiment: qHTS Assay for Inhibitors of Aldehyde Dehydrogenase 1 (ALDH1A1);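 on activity, negative = inhibition: plate controls were no enzyme wells and a reference inhibitor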
Details: Purified ALDH1A1, NADH fluorescence, propionaldehyde substrate; series mostly up to 75.3 µM; activity, negative = inhibition: at the top concentration
Potency means the concentration at half of the fitted maximal effect; tags describe the fitted curve by direction and shape.

Sequence of UniProt P00352 (P00352 whole entry, looked up): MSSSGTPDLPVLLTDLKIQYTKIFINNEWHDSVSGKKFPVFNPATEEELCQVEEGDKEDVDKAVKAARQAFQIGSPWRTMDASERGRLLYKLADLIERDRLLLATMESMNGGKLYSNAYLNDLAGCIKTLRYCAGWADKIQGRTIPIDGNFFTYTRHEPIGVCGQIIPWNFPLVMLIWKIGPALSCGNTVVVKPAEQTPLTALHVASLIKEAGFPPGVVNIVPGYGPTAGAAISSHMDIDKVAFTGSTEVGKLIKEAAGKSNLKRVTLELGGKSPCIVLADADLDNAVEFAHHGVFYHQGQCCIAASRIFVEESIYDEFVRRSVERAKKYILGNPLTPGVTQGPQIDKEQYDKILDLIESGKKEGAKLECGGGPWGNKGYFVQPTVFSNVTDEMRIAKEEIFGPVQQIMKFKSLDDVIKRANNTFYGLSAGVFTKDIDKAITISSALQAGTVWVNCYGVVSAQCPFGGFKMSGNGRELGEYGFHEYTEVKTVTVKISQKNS

| SMILES | Potency | activity, negative = inhibition |
| --- | --- | --- |
| COc1ccc(CN2CCN(S(=O)(=O)c3ccc(NC(C)=O)cc3)CC2)cc1OC | inconclusive: 39.8 µM [inhibitor, single point] |  |
| N#C/C(C(=O)N1CCOCC1)=c1\s/c(=C/c2ccncc2)c(=O)n1-c1ccccc1 |  | inactive: -19.3% |
| CCn1c(SCC(=O)N=Nc2c(O)[nH]c3ccccc23)nc2ccccc21 | active: 6.31 µM |  |
| CS(=O)(=O)N1CCC(C(=O)Nc2cc(Cl)cc(Cl)c2)CC1 |  | inactive: -8.49% |
| CCCCCn1c(=O)c2ccccc2n2c(CCl)nnc12 | active: 25.1 µM |  |
| O=C(CSC1=Nc2ccccc2C2=NC(c3ccccc3)C(=O)N12)NCC1CCCO1 (configuration not stated) | inconclusive: 22.4 µM [inhibitor, partial curve] |  |
| c1ccc(CCc2nc(-c3ccccc3)no2)cc1 |  | inactive: -0.822% |
| Cc1cc(OCC(C)C)ccc1/C(O)=C1/C(=O)C(=O)N(Cc2cccnc2)C1c1ccncc1 (configuration not stated) | inconclusive: 37.7 µM [inhibitor, single point] |  |
| O=C(NCCCn1ccnc1)c1cc2c(s1)CCCCC2 | inconclusive: 39.8 µM [inhibitor, single point] |  |
| O=C(NCCc1ccccc1)c1c(O)c2cccc3c2n(c1=O)CC3 | inconclusive: 39.8 µM [inhibitor, single point] |  |
| CCN(CC)C(=O)COc1ccc(C=O)cc1OC | inconclusive: 28.2 µM [inhibitor, single point] |  |
| CCO[C@H]1OC(C(N)=O)=C[C@@H](c2coc3ccccc3c2=O)[C@@H]1CCCO | inconclusive: 39.8 µM [inhibitor, single point] |  |
| Cc1ccc(N(C)C(=O)n2cnc3ccccc32)cc1 |  | inactive: -7.57% |
| COc1ccc(CN(C(=O)CSc2nnc(-c3ccccc3C)o2)c2ccc(F)cc2)cc1 | active: 2.51 µM |  |
| Cc1cc(C(=O)OCC(=O)c2cccc([N+](=O)[O-])c2)c2ccccc2n1 |  | inactive: -2.25% |
| COc1ccc(NC(=O)CSc2nnc(Cc3cccn3C)n2CCc2ccccc2)cc1OC | inconclusive: 35.5 µM [inhibitor, single point] |  |
| O=c1cc(-c2ccccc2)nc2nc(-c3ccco3)[nH]n12 | inconclusive: 35.5 µM [inhibitor, single point] |  |
| Cc1ccc(S(=O)(=O)NC(=O)c2ccc(-c3ccc(C)c4ccccc34)o2)cc1 | inconclusive: 31.6 µM [inhibitor, partial curve] |  |
| O=C(Nc1cccc(-c2nc3ncccc3o2)c1)c1cc2ccccc2o1 | inconclusive: 35.5 µM [inhibitor, partial curve] |  |
| CN1/C(=C/C2CC(=O)N(c3ccc([N+](=O)[O-])cc3)C2=O)C(C)(C)c2ccccc21 (configuration not stated) | active: 11.2 µM |  |
| Cc1nc(N)c(C#N)c(-c2cccnc2)c1C |  | inactive: 0.929% |
| O=C(NCCC1=CCCCC1)C1CCN(S(=O)(=O)N2CCCC2)CC1 | inconclusive: 20 µM [inhibitor, partial curve] |  |
| COc1ccc(NC(=O)c2cccc(S(=O)(=O)Nc3ccc(Br)cc3)c2)cn1 |  | inactive: -6.57% |
| COC(=O)Nc1ccc(S(=O)(=O)N(CCO)CC(F)(F)C(F)F)cc1 |  | inactive: 13.8% |

| SMILES | Potency | activity, negative = inhibition |
| --- | --- | --- |
| Cc1oc(C(=O)O)cc1COc1ccc2c3c(c(=O)oc2c1)CCC3 | inconclusive: 25.1 µM [inhibitor, partial curve] |  |
| Cc1ccc(C2N(C)c3ccccc3-c3nc4ccccc4n32)o1 (configuration not stated) | inconclusive: 28.2 µM [inhibitor, partial curve] |  |
| O=C(Nc1ccon1)c1ccc(S(=O)(=O)N2CCOCC2)cc1 |  | inactive: 0.713% |
| CC(C)(C)NC(=O)CSc1nnc(C2CC2)n1-c1ccccc1 |  | inactive: -4.37% |
| Cc1cc(C)c(OCC(=O)Nc2nc(-c3ccccn3)cs2)c(C)c1 | inconclusive: 39.8 µM [inhibitor, single point] |  |
| O=C(CSc1cccc2cccnc12)N/N=C/c1cccnc1 | inconclusive: 39.8 µM [inhibitor, single point] |  |
| CSc1ccc(S(=O)(=O)NCc2ccccc2C)cc1 |  | inactive: -9.66% |
| CC1NC(C(=O)O)Cc2c1[nH]c1ccccc21 (configuration not stated) |  | inactive: 2.31% |
| CCOC(=O)c1c(CN2CCCCC2)oc2ccc(OC)cc12 | inconclusive: 39.8 µM [inhibitor, single point] and inconclusive: 25.1 µM [inhibitor, single point] |  |
| O=C1CC(SC(=NCc2ccc3c(c2)OCO3)Nc2ccccc2)C(=O)N1 (configuration not stated) | inconclusive: 20 µM [inhibitor, partial curve] |  |
| COc1cc(C(=O)N2CCN(Cc3ccccc3C(F)(F)F)CC2)cc(OC)c1OC | inconclusive: 39.8 µM [inhibitor, single point] |  |
| O=C(COc1ccccc1F)N1CCN(S(=O)(=O)/C=C/c2ccccc2)CC1 | inconclusive: 31.6 µM [inhibitor, single point] |  |
| O=C(N/N=C/c1ccncc1)c1cccc(NC(=O)c2ccccc2Cl)c1 | active: 12.6 µM |  |
| COCCn1c(-c2ccc(OC)cc2)cnc1SCC(=O)Nc1cccc2ccccc12 | inconclusive: 39.8 µM [inhibitor, single point] |  |
| CCn1nc(NC(=O)c2ccccc2)c2cc3cccc(C)c3nc21 | inconclusive: 39.8 µM [inhibitor, single point] |  |
| O=C(NCCCN1CCOCC1)c1cccc(S(=O)(=O)N2CCc3ccccc3C2)c1 | inconclusive: 39.8 µM [inhibitor, partial curve, poor fit] |  |
| COc1ccc2[nH]c3c(=O)n(CCCCC(=O)NCCN4CCCC4)c(=S)[nH]c3c2c1 | inconclusive: 22.4 µM [inhibitor, partial curve] |  |
| Brc1ccc(C2=NCCC(c3ccccc3)O2)cc1 (configuration not stated) | inconclusive: 63.1 µM [inhibitor, single point] |  |
| COc1ccccc1OCCNc1cc(N2CCCCC2)ccc1[N+](=O)[O-] | active: 17.8 µM |  |
| O=C(NCc1ccco1)c1csc2c1CCCCC2 | inconclusive: 10 µM [inhibitor, partial curve] |  |
| CCCCc1ccc(NC(=O)COCC)cc1 | active: 14.1 µM |  |
| COc1cc(/C=C2/C(=O)N=C(N)N2C)cc(OC)c1OC | inconclusive: 39.8 µM [inhibitor, single point] |  |
| CCCC/C=C/C(NC(=O)c1cccs1)c1ccccc1 (configuration not stated) | inconclusive: 28.2 µM [inhibitor, single point] |  |
| COc1ccc(C(=O)O/N=C(\C)c2nccs2)cc1 | inconclusive: 35.5 µM [inhibitor, single point] |  |

| SMILES | Potency | activity, negative = inhibition |
| --- | --- | --- |
| CCOC(=O)N1CCN(c2c(NCc3ccccn3)c(=O)c2=O)CC1 | inconclusive: 39.8 µM [inhibitor, single point] |  |
| CCOC(=O)C1=C(C)NC(=S)NC1c1cc(C)sc1C (configuration not stated) | active: 39.8 µM |  |
| CC(=O)Cc1nsc(NC(=O)c2ccc(COc3ccccc3)o2)n1 | inconclusive: 0.794 µM [inhibitor, full curve] |  |
| CC(C)C(c1nnnn1CCc1ccccc1)N1CCN(C(=O)c2ccco2)CC1 (configuration not stated) | inconclusive: 28.2 µM [inhibitor, single point] |  |
| CCCn1c(=O)c(C(=O)Nc2nnc(CC)s2)c(O)c2ccccc21 |  | inactive: -3.06% |
| Cc1cc(C)cc(N(C(=O)CCC(=O)Nc2ccccn2)C(C(=O)NC(C)C)c2ccc(O)cc2)c1 (configuration not stated) |  | inactive: 7.59% |
| O=C(CN1CCSCC1)c1c[nH]c2ccccc12 | inconclusive: 28.2 µM [inhibitor, single point] |  |
| CCn1c(CSc2nnc3ccccn23)nc2cc(C(=O)O)ccc21 |  | inactive: 10.2% |
| CCOc1ccc(C(=O)N[C@H](C(=O)Nc2ccc(OC)c(S(=O)(=O)N3CCOCC3)c2)C(C)C)cc1 | inconclusive: 39.8 µM [inhibitor, single point] |  |
| O=C(C1CCCO1)N1CCN(C(=S)Nc2ccc(Cl)c(Cl)c2)CC1 (configuration not stated) | inconclusive: 14.1 µM [inhibitor, partial curve] |  |
| Cc1ccc(C(=O)Nc2ccc(Oc3cccc(C(F)(F)F)c3)nc2)cc1 |  | inactive: 6.61% |
| CCCCC(=O)NC(c1ccco1)c1c(O)ccc2ccccc12 (configuration not stated) | inconclusive: 31.6 µM [inhibitor, single point] |  |
| C=CCN1C(=O)S/C(=C\c2ccc(N3CCOCC3)cc2C)C1=O | active: 0.891 µM |  |
| O=C(Cc1csc(Nc2nc(=S)[nH]c3ccccc23)n1)N1CCN(c2cccc(Cl)c2)CC1 |  | inactive: -4.36% |
| CC1=N/C(=C\c2ccc([N+](=O)[O-])cc2)C(=O)N1c1ccc(Br)c(C)c1 | inconclusive: 39.8 µM [inhibitor, single point] |  |
| COc1cc(NC(=O)C(=O)NCCN2CCNCC2)c(OC)cc1Cl | inconclusive: 39.8 µM [inhibitor, single point] |  |
| CCN(CC)S(=O)(=O)N1CCC(C(=O)NCCC2=CCCCC2)CC1 | active: 2.51 µM |  |
| CCOc1ccc(NC(=O)CC2C(=O)N(c3ccccc3)C(=O)N2Cc2ccco2)cc1 (configuration not stated) | inconclusive: 39.8 µM [inhibitor, single point] |  |
| CSc1nnnc2ccccc12 |  | inactive: -6.22% [at 13.5 µM] |
| CC(C)(C)c1nc(SCC(=O)c2ccccc2)c2ccccc2n1 | inconclusive: 25.1 µM [inhibitor, single point] |  |
| COCCCNC(=O)c1c(N)n(-c2ccc3c(c2)OCO3)c2nc3ccccc3nc12 | inconclusive: 39.8 µM [inhibitor, single point] |  |
| Cc1cc(C)n2nc(-c3ccco3)nc2n1 | inconclusive: 22.4 µM [inhibitor, partial curve] |  |
| COc1cc(Cl)c(C)cc1NC(=O)CN(C)Cc1cccc(OC)c1OC | inconclusive: 4.47 µM [inhibitor, partial curve] |  |
| Cc1ccc(OC(=O)c2ccc(N3CCOCC3)c([N+](=O)[O-])c2)cc1 | active: 7.08 µM |  |
